Experimental data as given in PubChem BioAssay AID1240 (Sanford-Burnham Center for Chemical Genomics, 2008).
Out of some 50,000 compounds screened, about 800 (1.6%) showed an effect of 50% or more. The list shows a part of the results.

The compounds below were run against Bcl-2-like protein 10 (Homo sapiens) (UniProt Q9HD36) (assay: TR3 peptide-Bcl-B binding displacers, biochemical primary FP assay, phenotype converters (AID 1240;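 further: 0% = Bcl-B with tracer peptide and DMSO and 100% = tracer peptide lacking Bcl-B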)). Settings: GST-Bcl-B / FITC-TR3 peptide fluorescence polarization; stronger effect = higher value; compound at 3.75 mg/L.
Sequence of UniProt Q9HD36 (Q9HD36 whole entry, looked up): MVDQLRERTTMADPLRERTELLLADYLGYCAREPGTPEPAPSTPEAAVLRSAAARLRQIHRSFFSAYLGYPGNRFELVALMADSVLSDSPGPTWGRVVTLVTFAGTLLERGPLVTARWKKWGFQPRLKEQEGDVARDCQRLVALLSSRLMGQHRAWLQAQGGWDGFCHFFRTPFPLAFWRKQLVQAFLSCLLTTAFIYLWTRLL

Row | SMILES | displacement [%]
1 | COc1cc(OC)cc(C(=O)N2CCN(Cc3ccccc3[N+](=O)[O-])CC2)c1 | 8.4
2 | COC(=O)Nc1ccc2c(c1)N(C(=O)CCN(C)C)c1ccccc1CC2 | -0.3
3 | Cc1c(Cc2ccccc2)c(=O)oc2c(C)c(OCC(=O)N(C)C)ccc12 | 8.9
4 | Cc1cc(-c2ccco2)c(C#N)c(=S)[nH]1 | 4
5 | COc1ccc(OC)c(CNc2cc([N+](=O)[O-])ccc2OC)c1 | -26.7
6 | CCc1cc(C)cc(OCCOc2ccc(/C=C3/SC(=S)N(C)C3=O)cc2)c1 | 6.7
7 | NC(=O)c1cc(NC(=O)COc2ccc(F)cc2)c(Cl)cc1Cl | -4
8 | O=C(N/N=C\c1cc(Br)ccc1O)c1cnccn1 | -10.7
9 | Cc1ccc(N(CC(=O)N(Cc2ccccc2)Cc2ccccc2)S(C)(=O)=O)cc1Cl | 14.5
10 | COc1ccc(CN2CCN(C3CC4CCC3C4)CC2)c(OC)c1OC (centres undefined) | -2.9
11 | Cc1ccc(S(=O)(=O)N(Cc2ccccc2)c2ccccc2C(=O)Nc2ccc(C)c(C)c2)cc1 | 3.2
12 | COc1ccc(C2=Nc3ccccc3NC(c3ccc(F)cc3)C2)cc1 (centres undefined) | -52.4
13 | COc1ccc(C(=O)/C=C/Nc2ccccn2)c(OC)c1 | -8
14 | CCOc1ccc(N(CC(=O)N2CCN(c3ccccc3OC)CC2)S(C)(=O)=O)cc1 | -1.6
15 | O=C(Nc1sc2c(c1C(=O)O)CCCCC2)c1cccs1 | -10.6
16 | COc1ccc(C2CC(=O)C3=C(C2)Nc2ccccc2NC3c2cc(OC)c(OC)cc2Br)cc1 (centres undefined) | 14.5
17 | Cc1ccc(NC(=S)NC(=O)/C=C/c2ccccc2)c(C)c1 | 1.1
18 | O=[N+]([O-])c1cccc(/C=N/Nc2ccc3nnnn3n2)c1 | 0.8
19 | O=C(c1nn2c(C(F)(F)F)cc(-c3ccccc3)nc2c1Cl)N1CCCC1 | 22.7
20 | O=C(CSc1nnc(SCC(=O)c2ccc(F)cc2)n1-c1ccccc1)c1ccc(F)cc1 | 12.2
21 | Cc1ccc(-c2nc(N/N=C/c3cccnc3)c3ccccc3n2)cc1 | 6.5
22 | CCOc1cc(OCC)cc(C(=O)Nc2ccc3oc(-c4cccc(F)c4)nc3c2)c1 | 6.3
23 | CC(=O)N(CCCN(C)C)Cc1ccc2c(c1)OCO2 | -5.3

Row | SMILES | displacement [%]
24 | CCNC(=S)N1CCN(c2ccccc2OC)CC1 | 14.8
25 | CCOC(=O)C1=C(C)N=c2s/c(=C\c3ccc([N+](=O)[O-])cc3)c(=O)n2C1c1ccc(Cl)cc1 (centres undefined) | 9.2
26 | Cn1c(=O)c2c(nc3n2CC(=O)N3c2cccc(Cl)c2)n(C)c1=O | -5.8
27 | CC(=O)c1ccc(NC(=O)CSCC(=O)Nc2ccccc2)cc1 | 7.5
28 | COc1ccc(NC(=O)C23CCC4CC(CC(C4)C2)C3)cc1 | 11.3
29 | CC(=C/c1ccccc1)/C=N/NC(=O)CSc1n[nH]c(=O)[nH]c1=O | -1.5
30 | COc1ccccc1OCCOc1ccccc1/C=N/n1cnnc1 | 5.1
31 | O=C(NC1CCCCC1)Oc1ccc2oc(=O)sc2c1 | 11.5
32 | CCOc1ccc(/C=C2\C(=O)NC(=S)N(c3cccc(Br)c3)C2=O)cc1Cl | 13.4
33 | O=C(c1ccccc1)c1ccccc1N/C=C/[N+](=O)[O-] | 15.1
34 | CC1=C(C)CC2C(=O)N(c3ccc(C(C)C)cc3)C(=O)C2C1 (centres undefined) | -9.6
35 | Cc1ccc(NC(=O)CN(c2cc(Cl)cc(Cl)c2)S(C)(=O)=O)c(C)c1 | 24.8
36 | O=[N+]([O-])c1ccccc1N1CCCCC1 | -12.9
37 | COc1ccc(C(=O)CC(Sc2ccccc2NC(C)=O)c2cccc(Br)c2)cc1 (centres undefined) | 3.3
38 | COc1ccc(N2C(=O)c3ccc(-c4nc5ccccc5c(=O)o4)cc3C2=O)cc1OC(C)=O | -6
39 | CCC1=NN(C(=O)c2cccc(O)c2)C(O)(c2ccncc2)C1 (centres undefined) | 8.1
40 | O=C(Nc1ccc(NS(=O)(=O)c2cc(Cl)c(Cl)cc2Cl)cc1)c1ccccc1 | -12.6
41 | Brc1ccc(/C=N/n2c(-c3ccccc3)nnc2-c2ccccc2)cc1 | 31.4
42 | O=C(CN(c1cccc(Cl)c1)S(=O)(=O)c1ccccc1)Nc1cccc2cccnc12 | -6.8
43 | CC(=O)NC1=NN(C(C)=O)C(c2ccc(Br)cc2)S1 (centres undefined) | -6.3
44 | CCc1cccc(C)c1NC(=O)c1ccc(OC)c([N+](=O)[O-])c1 | -10.9
45 | CCN(CC)C(=O)CN(c1cccc(Br)c1)S(=O)(=O)c1ccccc1 | 7.1
46 | O=C(Nc1c(-c2ccccc2)nc2ccc(Cl)cn12)c1ccc(Br)cc1 | 9.6

Row | SMILES | displacement [%]
47 | COC(=O)/C(O)=C/C(=O)c1cccs1 | 16.4
48 | CC(=O)c1c(-c2ccccc2)c2cc([N+](=O)[O-])ccc2n1C | -5.3
49 | O=C(COc1ccc(Br)cc1)NNC(=O)Nc1ccccc1 | 4.2
50 | O=C(Cn1nnc2ccccc21)NNC(=S)Nc1ccccc1 | -26.5
51 | O=C(c1ccccc1)N1CCCC2CCCC21 (centres undefined) | 9.3
52 | COC(=O)C1=CN(Cc2cccs2)C=C(C(=O)OC)C1c1ccc(C)s1 | 34.6
53 | CC(C)OC(=O)c1c(NC(=O)c2cccs2)sc2c1CCCC2 | 5.8
54 | O=C(Nc1cccc(Cl)c1)Nc1nnc(/C=C/c2ccccc2Cl)s1 | 10
55 | CC(C)CC(=O)NS(=O)(=O)c1ccc(NC(=O)c2ccccc2Cl)cc1 | 17.9
56 | CCC(Oc1ccccc1)C(=O)NC(C)c1ccccc1 (centres undefined) | -18.9
57 | Cc1ccccc1NC(=O)CN(c1cccc(Br)c1)S(=O)(=O)c1ccccc1 | -4
58 | Cc1cccc(C(=O)Nc2ccc(I)cc2Cl)c1 | -3.9
59 | C=CCNC1=C(Cl)C(=O)N(c2ccc(C)cc2C)C1=O | 13.7
60 | COc1ccc(C(=O)Nc2sc3c(c2C(=O)OC(C)C)CCCC3)cc1OC | 12
61 | CCOc1ccc(N(CC(=O)NCCc2ccccc2)S(=O)(=O)c2ccc(Br)cc2)cc1 | 10.5
62 | COc1ccc(C(=O)N/N=C/c2ccc(SC)cc2)cc1 | -4.2
63 | O=C1C(=O)N(Cc2cccnc2)C(c2ccc(Cl)cc2Cl)/C1=C(\O)c1ccccc1 (centres undefined) | 1.7
64 | Cc1ccccc1/C=C1\C(=O)NC(=O)N(c2ccc(Br)cc2)C1=O | 4.6
65 | CS(=O)(=O)N(CC(=O)N1CCOCC1)c1ccc(Cl)cc1 | 13.1
66 | CS(=O)(=O)N(CC(=O)O)c1ccccc1 | 0.7
67 | CN1C(=O)/C(=C2\SC(=S)N(C(Cc3ccccc3)C(=O)O)C2=O)c2ccccc21 (centres undefined) | 0.9
68 | Cc1[nH]c2ccc(Br)cc2c1CC(=O)N/N=C/c1ccc(Cl)c(Cl)c1 | 5.1
69 | O=C(CN1C(=O)/C(=C\c2ccccc2F)SC1=S)Nc1cccc(C(=O)O)c1 | 26.4
